According to a compilation of properties of binary mixtures (doi:10.1039/c3ra40303c):
Some of these densities may be calculated back from excess volumes.

Assay: xn = mol fraction of the nth substance listed
Settings: 101 kPa

CC(O)C(=O)[O-].C[N+](C)(C)CCO + O
mass density [kg/m3]
Settings | x2 = 0 | x2 = 0.0992 | x2 = 0.2048 | x2 = 0.3008 | x2 = 0.4038 | x2 = 0.5026 | x2 = 0.5858 | x2 = 0.701 | x2 = 0.7993 | x2 = 0.8998
293.15 K | 1145.6 | 1145.7 | 1144.9 | 1144.1 | – | – | – | 1133.1 | – | –
298.15 K | – | 1142.2 | 1141.5 | 1140.7 | – | – | – | 1129.7 | – | 1089.9
303.15 K | 1139 | – | 1138.2 | 1137.5 | – | – | – | – | 1115.2 | 1086.9
308.15 K | 1135.8 | 1135.7 | 1135 | – | – | – | – | 1123.1 | 1111.9 | –
313.15 K | 1132.7 | 1132.6 | 1131.9 | – | – | – | – | 1119.8 | 1108.7 | –
318.15 K | 1129.6 | 1129.5 | 1128.8 | – | – | – | 1122.5 | 1116.5 | – | 1077.9
323.15 K | 1126.5 | 1126.4 | 1125.7 | – | – | – | 1119.3 | – | – | 1074.9
328.15 K | 1123.5 | 1123.3 | 1122.6 | 1121.8 | – | – | 1116.1 | 1110 | – | 1071.7
333.15 K | 1120.5 | 1120.2 | – | – | – | – | 1112.9 | – | 1095.6 | 1068.7
338.15 K | 1117.5 | 1117.2 | 1116.4 | 1115.6 | – | – | 1109.6 | 1103.5 | 1092.5 | 1065.4
343.15 K | 1114.5 | 1114.1 | 1113.3 | 1112.5 | – | – | – | 1100.2 | 1089.1 | 1062.2
348.15 K | 1111.5 | 1111.1 | 1110.3 | 1109.5 | 1108 | 1105.7 | 1103.3 | 1096.9 | 1085.7 | –
353.15 K | 1108.5 | – | 1107.3 | 1106.4 | 1104.9 | 1102.6 | 1100.1 | 1093.7 | – | –

CC(O)C(=O)[O-].C[N+](C)(C)CCO + CCO
mass density [kg/m3]
Settings | x2 = 0 | x2 = 0.1039 | x2 = 0.2011 | x2 = 0.2996 | x2 = 0.3999 | x2 = 0.5003 | x2 = 0.601 | x2 = 0.7013 | x2 = 0.7987 | x2 = 0.8996
293.15 K | 1145.6 | 1135.6 | 1121 | – | 1086.2 | 1062.7 | 1034.4 | – | – | 885.7
298.15 K | 1142.3 | 1132.2 | 1117.7 | 1101.6 | 1082.8 | 1059.4 | 1030.9 | 994.3 | – | 881.7
303.15 K | 1139 | 1128.9 | 1114.5 | 1098.4 | 1079.6 | 1056 | – | 990.7 | 943.9 | –
308.15 K | 1135.8 | 1125.8 | – | 1095.2 | 1076.3 | 1052.7 | 1024.1 | 987.2 | 940.2 | 874
313.15 K | 1132.7 | 1122.6 | 1108.2 | 1092 | 1073.1 | 1049.4 | 1020.7 | 983.6 | 936.5 | 869.9
318.15 K | – | 1119.6 | 1105.1 | 1088.8 | 1069.9 | 1046.1 | – | 980 | 932.8 | 865.8
323.15 K | 1126.5 | – | 1102 | 1085.7 | 1066.7 | – | 1014 | 976.5 | – | 861.8
328.15 K | 1123.5 | – | 1098.9 | 1082.5 | 1063.5 | 1039.6 | – | 973 | – | 857.9
333.15 K | 1120.5 | – | 1095.8 | 1079.4 | 1060.3 | 1036.4 | – | 969.5 | 921.7 | 853.9
338.15 K | 1117.5 | 1107.4 | 1092.7 | 1076.3 | – | 1033 | 1003.9 | 966 | 918 | 849.9
343.15 K | 1114.5 | 1104.4 | 1089.7 | 1073.2 | 1054 | 1029.8 | 1000.6 | 962.5 | 914.4 | 845.8
